Measurements taken from PMC6919601, “Identification of Plasmodium dipeptidyl aminopeptidase allosteric inhibitors by high throughput screening” (PLoS ONE, 2019).
Among all 110,000 compounds or so, about 230 (0.21%) showed an effect of 50% or more. This is one part of the list.

target: DPAP1 (Plasmodium falciparum, UniProt Q8IIJ9); test: primary screen, percent inhibition; read by cleavage of a fluorogenic dipeptide substrate; higher = more effect of the substance; set-up: species or system P. falciparum D10 trophozoite lysates; single well
Sequence (Q8IIJ9 whole entry, looked up): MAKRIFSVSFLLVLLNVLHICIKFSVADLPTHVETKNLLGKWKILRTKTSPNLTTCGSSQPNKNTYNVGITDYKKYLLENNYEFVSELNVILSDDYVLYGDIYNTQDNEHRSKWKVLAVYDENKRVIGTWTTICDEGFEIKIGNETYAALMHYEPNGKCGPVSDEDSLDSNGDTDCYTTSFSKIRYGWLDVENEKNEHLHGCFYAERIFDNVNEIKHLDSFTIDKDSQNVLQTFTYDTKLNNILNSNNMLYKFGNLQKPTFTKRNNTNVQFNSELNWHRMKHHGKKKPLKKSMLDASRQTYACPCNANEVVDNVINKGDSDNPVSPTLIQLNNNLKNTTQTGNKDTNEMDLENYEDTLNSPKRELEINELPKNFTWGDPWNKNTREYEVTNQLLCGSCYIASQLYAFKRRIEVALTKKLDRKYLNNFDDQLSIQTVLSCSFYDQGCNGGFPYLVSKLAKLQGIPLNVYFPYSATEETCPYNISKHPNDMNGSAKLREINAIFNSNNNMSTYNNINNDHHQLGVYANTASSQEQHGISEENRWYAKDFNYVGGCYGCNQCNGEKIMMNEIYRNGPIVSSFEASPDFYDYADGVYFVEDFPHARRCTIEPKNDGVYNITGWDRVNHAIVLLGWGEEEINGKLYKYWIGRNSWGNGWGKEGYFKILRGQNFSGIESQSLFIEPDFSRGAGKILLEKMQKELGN
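Also: 30 min substrate incubation versus DMSO and 10 µM JCP410 controls.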

Going from `c1ccc(OCCN2CCCC2)cc1` to `CC(O)(C#CCN1CCCCC1)c1ccccc1` (stereo not shown), the “% Inhibition @ 10 uM” value falls from 2.76% to 0.98%.

Going from `Cn1c(C(=O)O)c(CC(=O)N2CCN(Cc3ccc4c(c3)OCO4)CC2)c2ccccc21` to `COC(=O)c1cc2ccc3c(c2oc1=O)CN(Cc1ccccc1)CO3`, the “% Inhibition @ 10 uM” value rises from 2.06% to 10.6%.

Going from `C=CCC1(NCc2ccccc2)CCN(CC)CC1` to `O=C(Cn1nc(Cc2cccnc2)c2ccccc2c1=O)N1CCC2(CC1)OCCO2`, the “% Inhibition @ 10 uM” value falls from 0.392% to -1.21%.

Compared with `COc1ccc2c(CCNC(=O)c3ccco3)c[nH]c2c1`, `COc1ccc(C(=O)NCc2oc(-c3ccccc3)cc2C(=O)O)cc1` is lower in “% Inhibition @ 10 uM” value: 0.00178% for the first, -5.53% for the second.

First: COc1ccc(C(=O)c2cc(CC(=O)O)c(-c3ccc(OC)cc3)s2)cc1
Second: COc1ccc(/N=c2\scc(-c3ccc(OC)cc3)n2CCO)cc1
The “% Inhibition @ 10 uM” value of the first is higher: -1.82% for the first, -3.39% for the second.

Compared with `COC(=O)c1ccc(-n2nnnc2SCC(=O)N2CCCCC2)cc1`, `Cc1nnc2nc(SCC(=O)N3CCCC3)n(-c3cccc(Cl)c3C)c(N)c1-2` is higher in “% Inhibition @ 10 uM” value: 2% for the first, 11.4% for the second.

Compared with `O=C1N=C(Nc2ccc(Br)cc2)S/C1=C\c1ccc(C(=O)O)cc1`, `COC(=O)C1=C(C)N=c2s/c(=C\c3ccc(Cl)cc3)c(=O)n2C1/C=C/c1ccccc1` (stereo not shown) is higher in “% Inhibition @ 10 uM” value: -1.35% for the first, 0.219% for the second.

Compared with `CC(C)CC(C(=O)NCCC1=CCCCC1)N1Cc2ccccc2C1=O` (stereo not shown), `COc1cc(OC)cc(-c2nc3nc(C)c(CCC(=O)NCCC4=CCCCC4)c(C)n3n2)c1` is higher in “% Inhibition @ 10 uM” value: -4.38% for the first, -2.25% for the second.

First: CCOC(=O)N1CCC(/N=c2\c(O)c(O)\c2=N/CCCOC)CC1
Second: CCCCN(C(=O)c1cc2c(Cl)nc3ccc(C)cc3c2s1)C1CCN(C(C)=O)CC1
The “% Inhibition @ 10 uM” value of the first is higher: 1.93% for the first, -1.7% for the second.

First: CCn1c(C)c(C)c2cc(C(=O)NCCc3ccc(SC)cc3)ccc21
Second: Cc1ccc(CNC(=O)CSc2nc3nccnc3c(=O)n2Cc2ccccc2Cl)cc1
The “% Inhibition @ 10 uM” value of the first is lower: -3.2% for the first, 2.81% for the second.

Compared with `CCOc1ccc2nc(Sc3ccc(C=C4C(=O)N(C)C(=O)N(C)C4=O)o3)sc2c1`, `CCOC(=O)c1cc2cc3cc(C)ccc3nc2s1` is higher in “% Inhibition @ 10 uM” value: 1.13% for the first, 2.1% for the second.

Compared with `CC1CCc2c(sc3nnn(CC(=O)NCc4ccco4)c(=O)c23)C1` (stereo not shown), `COc1ccc(S(=O)(=O)Nc2ccc3oc4c(c3c2)CC(C)CC4)cc1` (stereo not shown) is lower in “% Inhibition @ 10 uM” value: 2.24% for the first, 0.909% for the second.

Compared with `CC12CC3(C)CC(C)(C1)CC(NC(=O)N1CCN(CCO)CC1)(C2)C3`, `CCOC(=O)N1CCN(C(=O)CNS(=O)(=O)c2ccc3nc(C)sc3c2)CC1` is higher in “% Inhibition @ 10 uM” value: -1.89% for the first, -0.933% for the second.

Compared with `CC(C)N1CC2(c3ccccc3)CN(C(C)C)CC(c3ccccc3)(C1)C2=O`, `CCC(=O)Nc1ccccc1C(=O)Nc1ccccc1` is lower in “% Inhibition @ 10 uM” value: -1.1% for the first, -4.97% for the second.

First: Cc1ncc(-c2ccc([N+](=O)[O-])cc2)cn1
Second: O=C(O)c1cnc(-c2ccccc2)nc1-c1ccncc1
The “% Inhibition @ 10 uM” value of the first is higher: 2.65% for the first, 2.39% for the second.

Going from `Cc1ccccc1-c1noc(-c2cccs2)n1` to `Cc1nc2ccc(S(=O)(=O)NC(C(=O)NCc3cccs3)c3ccccc3)cc2s1` (stereo not shown), the “% Inhibition @ 10 uM” value falls from 7.02% to -5.89%.

Going from `O=c1[nH]c(=O)n(Cc2ccccc2)c2c1C(C(F)(F)F)(C(F)(F)F)NC(c1ccccn1)=N2` to `O=C(c1ccc(Cl)c([N+](=O)[O-])c1)N(Cc1ccccc1)Cc1ccccc1`, the “% Inhibition @ 10 uM” value rises from -1.89% to 2.33%.

Compared with `Fc1cccc(Cl)c1C1CC(c2cccnc2)Nc2ncnn21` (stereo not shown), `Cc1oc(-c2ccc(Cl)cc2)nc1CN1CCCC(C(=O)NCc2ccccc2Cl)C1` (stereo not shown) is higher in “% Inhibition @ 10 uM” value: 0.238% for the first, 0.689% for the second.

Compared with `COc1cccc(-c2nc(CS(=O)(=O)CC(=O)NC(C)CCc3ccccc3)c(C)o2)c1` (stereo not shown), `Cc1ccc(-c2cn3c4c(=O)n(C)c(=O)n(C)c4nc3n2CC(O)c2ccccc2)cc1` (stereo not shown) is higher in “% Inhibition @ 10 uM” value: -0.138% for the first, 0.883% for the second.

Compared with `C#CCn1c(CCNC(C)=O)nc2ccccc21`, `CC(C)CCNC(=O)C1CCCCN1S(=O)(=O)c1ccc(C(C)(C)C)cc1` (stereo not shown) is higher in “% Inhibition @ 10 uM” value: -2.5% for the first, -0.228% for the second.

Going from `CCCCCCCCOc1ccc(/C=C(\C#N)c2nc(-c3ccc(OC)cc3)cs2)cc1` to `C=CCSc1nc(-c2ccc(OC)cc2)cc(-c2ccc(OC)cc2)c1C#N`, the “% Inhibition @ 10 uM” value rises from -5.94% to -3.66%.

Compared with `CCOC(=O)c1c(N)oc2c3c(c(O)cc12)C(=O)c1ccccc1C3=O`, `Cc1ccc(S(=O)(=O)Nc2nc(C)c(NC(=O)Nc3ccc(Cl)cc3)s2)cc1` is higher in “% Inhibition @ 10 uM” value: -1.6% for the first, 9.03% for the second.

Going from `COC(=O)Nc1ccc(NC(=O)C23CC4CC(CC(C4)C2)C3)cc1` to `CCOCCCN1C(=O)CN(C2CCC(C)CC2)C(=O)C1c1ccc(C)cc1` (stereo not shown), the “% Inhibition @ 10 uM” value falls from -1.06% to -5.8%.

Going from `CSC1=NSC2=NC(=O)/C(=C\c3ccco3)C(=N)N12` to `Cc1cc(C)c2ccc3c(C)c(C)n(C)c3c2n1`, the “% Inhibition @ 10 uM” value rises from 4.06% to 13.3%.

With `CC1(C)C/C(=N/O)c2cc3c(nc2C1)CC(C)(C)C/C3=N\O` the “% Inhibition @ 10 uM” value was 1.41%.
